The chains are these.
B1: PhoQ; a variant is named by its letters at X, in order, P23837 (parent)
chain: MKKLLRLFFPLSLRVRFLLATAAVVLVLSLAYGMVALIGYSVSFDKTTFRLLRGESNLFYTLAKWENNKLHVELPENIDKQSPTMTLIYDENGQLLWAQRDVPWLMKMIQPDWLKSNGFHEIEADVNDTSLLLSGDHSIQQQLQEVREDDDDAEMTHSVAVNVYPATSRMPKLTIVVVDTIPVELKSSYMVWSWFIYVLSANLLLVIPLLWVAAWWSLRPIEALAKEVRELEEHNRELLNPATTRELTSLVRNLNRLLKSERERYDKYRTTLTDLTHSLKTPLXXLQXXLRSLRSEKMSVSDAEPVMLEQISRISQQIGYYLHRASMRGGTLLSRELHPVAPLLDNLTSALNKVYQRKGVNISLDISPEISFVGEQNDFVEVMGNVLDNACKYCLEFVEISARQTDEHLYIVVEDDGPGIPLSKREVIFDRGQRVDTLRPGQGVGLAVAREITEQYEGKIVAGESMLGGARMEVIFGRQHSAPKDE

Some of the results follow.

The variants in the experiment derive from B1. Kind of experiment: enrichment ratio after two sorts for PhoP signalling (ratio (wild type AVST 3.29)); higher = more functional. The settings on record: with PhoP (E. coli).
Take DAIT: the enrichment ratio was not above 0.25. Under KAIW stands not above 0.25. On to QFKM, for which the enrichment ratio was not above 0.25. As for VFDL, the enrichment ratio is not above 0.25. The same measure for METC: 45.8; for KRHT: not above 0.25; for SEHW: not above 0.25. The same measure for NHWS: not above 0.25; for TAPD: not above 0.25; for YIYN: not above 0.25.

In the case of IRKE, the enrichment ratio was not above 0.25.

In the case of LNGR, the enrichment ratio was not above 0.25. With MFEF, the enrichment ratio came to 0.864. The same measure for KVHV: not above 0.25; for WRLG: not above 0.25; for YLWW: not above 0.25.

For the variant LQGT, the enrichment ratio is not above 0.25. Under RVFQ stands not above 0.25; under HNMY, not above 0.25; under IEQV, not above 0.25. The same measure for YMIR: not above 0.25; for AYSA: not above 0.25. The same measure for MHLI: not above 0.25; for FGWM: not above 0.25. For FLHV, the enrichment ratio is not above 0.25. The same measure for FLNY: not above 0.25; for WQMR: not above 0.25; for TSKR: not above 0.25. Turning to ERPQ, the enrichment ratio was not above 0.25. The same measure for FFWR: not above 0.25. Under VANE stands not above 0.25; under TVYN, 6.13; under PSWH, not above 0.25.

For the variant SRLP, the enrichment ratio was not above 0.25.

As for RCDI, the enrichment ratio was not above 0.25. For PRSA, the enrichment ratio is not above 0.25. The same measure for VDWG: not above 0.25.

In the case of WYRT, the enrichment ratio was not above 0.25. The same measure for IDFQ: not above 0.25. The same measure for LQSG: not above 0.25; for WDIK: not above 0.25; for KFIN: not above 0.25. Consider MLLV, for which the enrichment ratio was not above 0.25. In the case of SDSI, the enrichment ratio is 1.29. The same measure for PYAI: not above 0.25; for SKWP: not above 0.25; for DMGF: not above 0.25. Under EYEH stands not above 0.25; under VQRL, not above 0.25; under YQQY, not above 0.25.

For the variant SHWM, the enrichment ratio is not above 0.25. For the variant VFGD, the enrichment ratio was not above 0.25. Under GCWD stands not above 0.25; under ALQR, not above 0.25; under LAHF, not above 0.25. Under TTRL stands 1.01; under DHMF, not above 0.25.

Take IWSC: the enrichment ratio is not above 0.25.

On to PIWY, for which the enrichment ratio was not above 0.25. Under EQGS stands not above 0.25; under TPCD, not above 0.25; under PHRK, not above 0.25. The same measure for IEGF: not above 0.25; for SELE: 21.5; for NGYW: not above 0.25. Under MINY stands not above 0.25; under YKCQ, not above 0.25. As to ANWR, the enrichment ratio was not above 0.25. Under RDHK stands not above 0.25; under RQVW, not above 0.25. Under DNMI stands not above 0.25; under VEER, not above 0.25. The same measure for FNNE: not above 0.25; for LHQP: not above 0.25. With NKHK, the enrichment ratio was not above 0.25. In the case of IDNV, the enrichment ratio was not above 0.25. The same measure for MQFM: 12.3; for RAQA: not above 0.25. The same measure for SNYW: not above 0.25; for MEQC: not above 0.25; for IHFC: not above 0.25.

In the case of MLTW, the enrichment ratio was not above 0.25. The same measure for IWYT: not above 0.25; for FALC: 6.6; for HQGF: not above 0.25. For the variant HAHP, the enrichment ratio was not above 0.25. VHYD: the enrichment ratio is not above 0.25.

In the case of PRWW, the enrichment ratio is not above 0.25. Under YTMT stands 0.265. Take MGIW: the enrichment ratio is not above 0.25. Under HCGQ stands not above 0.25. Under KTPD stands not above 0.25. As for NDCT, the enrichment ratio was not above 0.25.

For YHPC, the enrichment ratio is not above 0.25. Take NGVL: the enrichment ratio was not above 0.25. The same measure for GLPV: not above 0.25. With TMNV, the enrichment ratio is 3.3.

For the variant DYMV, the enrichment ratio is not above 0.25. On to RHQR, for which the enrichment ratio is not above 0.25. Turning to EFYM, the enrichment ratio was not above 0.25. On to IARW, for which the enrichment ratio is not above 0.25. The same measure for IPRT: not above 0.25; for VQCL: not above 0.25; for TNDC: not above 0.25.

LMWM: the enrichment ratio was not above 0.25. As to QICR, the enrichment ratio was not above 0.25. The same measure for IYQK: not above 0.25. As to WPFC, the enrichment ratio is not above 0.25. Under QDPH stands not above 0.25; under GSED, not above 0.25. Under RQKN stands not above 0.25; under IEWN, 4.75; under HKQM, not above 0.25.

In the case of SRGW, the enrichment ratio was 2.5. In the case of DRFR, the enrichment ratio is not above 0.25.

With DTKL, the enrichment ratio was not above 0.25.

Take NRSY: the enrichment ratio was not above 0.25. Under KGKI stands not above 0.25. On to HMQL, for which the enrichment ratio was not above 0.25. For the variant PKRA, the enrichment ratio is not above 0.25.

For the variant IKAG, the enrichment ratio is not above 0.25. Consider MGQL, for which the enrichment ratio was not above 0.25. Turning to DVQT, the enrichment ratio was not above 0.25. Under KQGY stands not above 0.25; under IRMC, not above 0.25.

SGSS: the enrichment ratio came out at 9.97.

Regarding VHSF, the enrichment ratio is not above 0.25.

For the variant VRLK, the enrichment ratio was 1.06. Turning to TWLL, the enrichment ratio was not above 0.25. The same measure for GPFW: not above 0.25; for PDQY: not above 0.25; for IKCR: not above 0.25. As to PDLC, the enrichment ratio came out at 0.919. Under DHAQ stands not above 0.25. The same measure for TPPL: not above 0.25. Under KRTW stands not above 0.25; under ANFP, not above 0.25.

In the case of NYFQ, the enrichment ratio was not above 0.25.

On to KQMC, for which the enrichment ratio was not above 0.25. Turning to WPPI, the enrichment ratio was not above 0.25. On to FAEI, for which the enrichment ratio is not above 0.25. The same measure for GRPH: not above 0.25; for MDSP: 1.12; for TLPS: not above 0.25. The same measure for HNRP: not above 0.25.

Regarding SVYT, the enrichment ratio was not above 0.25. The same measure for VPMP: not above 0.25. The same measure for MAQA: not above 0.25; for WVDW: not above 0.25. Turning to QTAY, the enrichment ratio was not above 0.25. The same measure for KSNE: not above 0.25. The same measure for RSDV: not above 0.25. Regarding NLEP, the enrichment ratio was not above 0.25.

In the case of RAHV, the enrichment ratio was not above 0.25. In the case of READ, the enrichment ratio was not above 0.25. Under LKVE stands not above 0.25. As to PTPN, the enrichment ratio was not above 0.25. Under GNFM stands not above 0.25. Under ITNP stands not above 0.25; under EELY, not above 0.25; under HVYH, not above 0.25.

Take VDAK: the enrichment ratio is not above 0.25. Under WEQV stands not above 0.25; under HWHL, not above 0.25; under MWPP, not above 0.25. Under DNDH stands not above 0.25; under APAL, not above 0.25. Under DRRF stands not above 0.25; under KEKY, not above 0.25; under RLDR, not above 0.25. ADCT: the enrichment ratio is not above 0.25.

Regarding KSDE, the enrichment ratio was not above 0.25. Under QWHF stands not above 0.25; under VFKM, not above 0.25. The same measure for SMQS: 0.676; for IVHY: not above 0.25. As to FMCH, the enrichment ratio is not above 0.25. The same measure for MPVQ: not above 0.25. The same measure for VQFL: not above 0.25; for LCLN: 0.259. The same measure for YHRK: not above 0.25. As for KYPR, the enrichment ratio was not above 0.25. Under KDGY stands not above 0.25; under PWML, not above 0.25; under KQYG, not above 0.25. Under YMQL stands not above 0.25; under NAKA, not above 0.25; under SEAN, 5.01.

In the case of TNTF, the enrichment ratio was not above 0.25. Turning to NDWY, the enrichment ratio is not above 0.25. The same measure for IHYE: not above 0.25.

With NYCG, the enrichment ratio was not above 0.25. The same measure for IAPW: not above 0.25.

WSCE: the enrichment ratio is not above 0.25. Under EMQT stands not above 0.25. The same measure for PCKW: not above 0.25. The same measure for LHEL: not above 0.25. Consider PSTP, for which the enrichment ratio was not above 0.25.

With MWAT, the enrichment ratio was not above 0.25. LFRI: the enrichment ratio was not above 0.25. Under FNRY stands not above 0.25. Under PPVQ stands not above 0.25; under GGCL, 8.88; under TCSW, 1.85. The same measure for IITT: not above 0.25; for TMYM: not above 0.25; for MWCW: not above 0.25. For the variant ESNS, the enrichment ratio is not above 0.25.

Turning to YPAV, the enrichment ratio was not above 0.25. The same measure for VQYE: not above 0.25; for ITCQ: not above 0.25; for KGGS: not above 0.25. Under PTIC stands not above 0.25; under WSKK, not above 0.25. Turning to NGSI, the enrichment ratio is not above 0.25. Take QLHK: the enrichment ratio is not above 0.25. Under FEYT stands not above 0.25; under WNHC, not above 0.25. Under NKYG stands not above 0.25.

Turning to PITI, the enrichment ratio is not above 0.25.

As for HEAI, the enrichment ratio was not above 0.25. Under MFAA stands not above 0.25; under IEWL, not above 0.25; under TKRF, not above 0.25. Under AIVI stands 13. With HRMA, the enrichment ratio is not above 0.25. The same measure for HFPP: not above 0.25; for CILG: not above 0.25. The same measure for LVLD: not above 0.25; for RTTP: not above 0.25; for RKYK: not above 0.25. For the variant IRNW, the enrichment ratio is not above 0.25.

As for QIKF, the enrichment ratio is not above 0.25.

As for NQIW, the enrichment ratio is not above 0.25. LVIK: the enrichment ratio is 0.67. Under YWNF stands not above 0.25. The same measure for HTLP: not above 0.25.

In the case of FYYC, the enrichment ratio was not above 0.25.

Take WVRF: the enrichment ratio is not above 0.25. The same measure for TTHT: 1.22; for FCRF: not above 0.25; for FIPP: not above 0.25. The same measure for YHLI: not above 0.25; for PTIL: not above 0.25. Under DSLC stands not above 0.25; under PWSN, not above 0.25.

Take NPRL: the enrichment ratio is not above 0.25. Under TVRG stands not above 0.25; under LAII, not above 0.25.

With FPPM, the enrichment ratio is not above 0.25. The same measure for PDDS: not above 0.25; for ERQK: not above 0.25. Under GTKS stands not above 0.25; under FGEH, not above 0.25; under RNIF, not above 0.25. Under LARQ stands not above 0.25; under IPEP, not above 0.25; under VFPQ, not above 0.25. HCAI: the enrichment ratio was not above 0.25. The same measure for IMRQ: not above 0.25; for FFSC: not above 0.25; for YLRI: not above 0.25. The same measure for KARC: not above 0.25; for RTAQ: not above 0.25. Under DIYD stands not above 0.25; under AVRA, not above 0.25. Take AIIR: the enrichment ratio is 1.02. The same measure for DVRD: not above 0.25. Under ACKL stands not above 0.25.

Take APWH: the enrichment ratio was not above 0.25. Under RFQL stands not above 0.25; under MHWR, not above 0.25. Turning to RIIL, the enrichment ratio was not above 0.25. The same measure for VTEY: not above 0.25; for PQMT: not above 0.25. Turning to DENF, the enrichment ratio is not above 0.25. The same measure for AHST: not above 0.25; for TKYH: not above 0.25. Under VSWN stands not above 0.25. Regarding GWRY, the enrichment ratio was not above 0.25.

For the variant DTAK, the enrichment ratio is not above 0.25. The same measure for HKWP: not above 0.25.

As for MQDV, the enrichment ratio is not above 0.25. Under FDMP stands not above 0.25; under EATM, not above 0.25. The same measure for LTET: not above 0.25. Under HFHA stands not above 0.25. As for GVPD, the enrichment ratio was not above 0.25. In the case of NEHE, the enrichment ratio is not above 0.25. Take FSNG: the enrichment ratio is not above 0.25. On to MPHR, for which the enrichment ratio is not above 0.25. As to QPNH, the enrichment ratio is not above 0.25. Under GHYR stands not above 0.25; under YWYI, not above 0.25; under PPGW, not above 0.25.

Consider RHQF, for which the enrichment ratio was not above 0.25.

Consider VWQA, for which the enrichment ratio was not above 0.25.

Consider KLHI, for which the enrichment ratio is not above 0.25. Under DLPQ stands not above 0.25; under TFKP, not above 0.25. Under MAPC stands not above 0.25.

For ASCY, the enrichment ratio was 0.505.

As to KTGM, the enrichment ratio is not above 0.25. Under EYDI stands not above 0.25; under RKPW, not above 0.25; under VGFV, not above 0.25.

The record behind these values is a collection of fitness landscapes (doi:10.1126/science.1257360).
